# Results reported in the supplement of paper PMC9446081.
# The whole screen tested about 39,000 compounds, of which about 220 (0.56%) showed activity. The list shows a part of the results.
# System: Escherichia coli K-12 BW25113
# Test: relative growth (OD600 normalised to plate interquartile mean) (fraction); higher = less growth inhibition, active = 0.2 or less
# Settings: 50 µM; LB; incubation time: overnight (16-24 h)
# 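Note: static incubation at 37 °C against the wild-type strain, values averaged over two biological replicates.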
row,Compound,relative growth
1,C[C@@H]1CCCCO[C@@H](CN(C)S(C)(=O)=O)[C@@H](C)CN([C@H](C)CO)C(=O)c2cc(NS(=O)(=O)c3ccc(F)cc3)ccc2O1,inactive: 1.01
2,C[C@H]1CN([C@@H](C)CO)C(=O)Cc2cc(NC(=O)CCC(F)(F)F)ccc2O[C@@H]1CN(C)C(=O)Nc1cccc2ccccc12,inactive: 0.989
3,C[C@@H]1CN([C@H](C)CO)C(=O)c2cc(NS(C)(=O)=O)ccc2O[C@@H](C)CCCCO[C@@H]1CN(C)S(=O)(=O)c1cccs1,inactive: 1.01
4,C[C@H]1CCCCO[C@H](CN(C)C(=O)NC2CCCCC2)[C@@H](C)CN([C@@H](C)CO)C(=O)c2cc(NC(=O)Nc3ccc(F)cc3)ccc2O1,inactive: 1.04
5,Cc1ccc(S(=O)(=O)N(C)C[C@H]2OCCCC[C@H](C)Oc3ccc(NS(C)(=O)=O)cc3C(=O)N([C@@H](C)CO)C[C@H]2C)cc1,inactive: 1
6,C[C@H]1CN([C@@H](C)CO)C(=O)c2c(c3ccccc3n2C)-c2ccccc2CO[C@@H]1CN(C)S(=O)(=O)c1ccc(Cl)cc1,inactive: 1.03
7,CC(C)NC(=O)N[C@H]1C=C[C@@H](CC(=O)NCCCN(C)C)O[C@@H]1CO,inactive: 0.983
8,CN(C)C1C(O)=C(C(N)=O)C(=O)C2(O)C(O)=C3C(=O)c4c(O)cccc4C(C)(O)C3CC12.Cl (stereo not drawn),active: 0.056
9,C[C@H](CO)N1C[C@H](C)[C@H](CN(C)C)OCCCC[C@H](C)Oc2ccc(NC(=O)Nc3cccc4ccccc34)cc2C1=O,inactive: 0.988
10,CC(C)=CCC[C@@H](C)CCO,inactive: 0.992
11,N=c1c(C(N)=S)cnc2ccccn12,inactive: 1.01
12,Cc1noc(C)c1S(=O)(=O)Nc1cccc2c1O[C@@H](CN(C)S(=O)(=O)c1ccc(Cl)cc1)[C@@H](C)CN([C@@H](C)CO)C2=O,inactive: 1.02
13,Cc1ccc(S(=O)(=O)Nc2ccc3c(c2)CC(=O)N([C@H](C)CO)C[C@@H](C)[C@H](CN(C)S(=O)(=O)c2ccccc2)O3)cc1,inactive: 0.999
14,NC1(CC(=O)O)CCN(Cc2ccccc2)CC1,inactive: 0.999
15,C[C@H]1CN([C@@H](C)CO)C(=O)c2c(c3ccccc3n2C)-c2ccccc2CO[C@H]1CN(C)Cc1ccc(F)cc1,inactive: 0.998
16,C[C@@H]1CN([C@H](C)CO)C(=O)c2cc(NC(=O)Cc3ccccc3)ccc2O[C@@H](C)CCCCO[C@@H]1CN(C)Cc1ccccc1,inactive: 0.988
17,COc1ccc(NC(=O)Nc2ccc3c(c2)C(=O)N([C@H](C)CO)C[C@@H](C)[C@@H](CN(C)C(=O)Nc2ccc(OC)cc2)OCCCC[C@@H](C)O3)cc1,inactive: 1.02
18,Cc1noc(C)c1S(=O)(=O)N(C)C[C@@H]1Oc2ccc(NS(=O)(=O)c3ccc(F)cc3)cc2CC(=O)N([C@H](C)CO)C[C@H]1C,inactive: 1.02
19,C[C@@H]1CN([C@H](C)CO)C(=O)c2cccc(NC(=O)Nc3ccccc3)c2O[C@H]1CN(C)Cc1ccc(-c2ccccc2)cc1,inactive: 0.977
20,C[C@@H]1CN([C@@H](C)CO)C(=O)c2cccc(NS(=O)(=O)c3ccccc3)c2O[C@@H]1CN(C)CC1CC1,inactive: 1.02

row,Compound,relative growth
1,C[C@@H]1CN([C@@H](C)CO)C(=O)c2c(c3ccccc3n2C)-c2ccccc2CO[C@H]1CN(C)S(C)(=O)=O,inactive: 1.01
2,CN1CC(=O)N=C1NC(=O)[C@H]1CCCN(S(=O)(=O)c2ccc3c(c2)oc(=O)n3C)C1,inactive: 1
3,Cc1c2oc3c(C)ccc(C(=O)N[C@@H]4C(=O)N[C@H](C(C)C)C(=O)N5CCC[C@H]5C(=O)N(C)CC(=O)N(C)[C@@H](C(C)C)C(=O)O[C@@H]4C)c3nc-2c(C(=O)N[C@@H]2C(=O)N[C@H](C(C)C)C(=O)N3CCC[C@H]3C(=O)N(C)CC(=O)N(C)[C@@H](C(C)C)C(=O)O[C@@H]2C)c(N)c1=O,inactive: 1.01
4,C[C@@H]1CCCCO[C@H](CN(C)CC2CCCCC2)[C@H](C)CN([C@@H](C)CO)C(=O)c2cc(NS(=O)(=O)c3ccccc3)ccc2O1,inactive: 0.992
5,Cc1ccc(S(=O)(=O)N(C)C[C@H]2OCCCC[C@H](C)Oc3ccc(NC(=O)Nc4ccc5c(c4)OCO5)cc3C(=O)N([C@@H](C)CO)C[C@@H]2C)cc1,inactive: 1.03
6,C[C@@H]1CN([C@@H](C)CO)C(=O)Cc2cc(NC(=O)C3CC3)ccc2O[C@@H]1CN(C)Cc1ccc2c(c1)OCO2,inactive: 0.999
7,C[C@@H]1CN([C@@H](C)CO)C(=O)c2cc(NC(=O)Nc3ccc(F)cc3)ccc2O[C@@H]1CN(C)C(=O)Nc1ccc(C(F)(F)F)cc1,inactive: 1.02
8,C[C@@H]1CCCCO[C@@H](CN(C)C(=O)c2ccccc2)[C@@H](C)CN([C@@H](C)CO)C(=O)c2cc(NC(=O)CCC(F)(F)F)ccc2O1,inactive: 1.02
9,CC=Cc1ccc2n(c1=O)C[C@H]1[C@H](CO)[C@@H](C(=O)NC3CCC3)N(S(C)(=O)=O)[C@@H]21,inactive: 1
10,CN1CCN(CC#N)C(=O)C12CCN(S(=O)(=O)C1CC1)CC2,inactive: 1.04
11,C[C@@H]1CN([C@H](C)CO)C(=O)CCCn2nncc2CO[C@@H]1CN(C)S(=O)(=O)c1ccc2ccccc2c1,inactive: 1.01
12,COC(=O)c1c(CC[C@@H](CO)NC(=O)Nc2ccc(OC)cc2)oc(C(=O)Cc2ccccc2)c1C(=O)OC,inactive: 1.01
13,C[C@H]1CN([C@@H](C)CO)C(=O)c2cc(NS(=O)(=O)c3cccs3)ccc2O[C@H]1CN(C)S(=O)(=O)c1cn(C)cn1,inactive: 1.01
14,C[C@H](CO)N1C[C@H](C)[C@@H](CN(C)S(=O)(=O)c2ccc(F)cc2)Oc2cc(C3=CCCC3)ccc2S1(=O)=O,inactive: 1.05
15,COc1ccc(NC(=O)Nc2ccc3c(c2)C(=O)N([C@H](C)CO)C[C@H](C)[C@H](CN(C)S(=O)(=O)c2ccc(OC)cc2)OCCCC[C@H](C)O3)cc1,inactive: 1.06
16,CO[C@@H]1CN(C)C(=O)c2ccc(NC(=O)c3cnccn3)cc2OC[C@@H](C)N(C(=O)c2cnccn2)C[C@H]1C,inactive: 1.01
17,C[N+](C)(C)CC(=O)O,inactive: 0.983
18,Cc1ccc(S(=O)(=O)Nc2ccc3c(c2)C(=O)N([C@H](C)CO)C[C@@H](C)[C@@H](CN(C)C(=O)Nc2cccc4ccccc24)O3)cc1,inactive: 1.03
19,O=C(O)c1ccccc1C(=O)Nc1ccc(S(=O)(=O)Nc2nccs2)cc1,inactive: 1.04
20,C[C@H]1CN([C@@H](C)CO)C(=O)c2cc(NC(=O)Nc3ccccc3)ccc2O[C@@H]1CN(C)S(C)(=O)=O,inactive: 0.994

row,Compound,relative growth
1,C[C@@H]1CN([C@@H](C)CO)C(=O)Cc2cc(NC(=O)CCN3CCOCC3)ccc2O[C@H]1CN(C)CC1CCCCC1,inactive: 0.956
2,C[C@@H]1CN([C@@H](C)CO)C(=O)c2cc(NC(=O)Nc3ccc(C(F)(F)F)cc3)ccc2O[C@@H]1CN(C)Cc1ccc(C(F)(F)F)cc1,inactive: 1.05
3,C[C@@H]1CN([C@@H](C)CO)C(=O)c2cc(NC(=O)CCCN(C)C)ccc2O[C@@H]1CN(C)Cc1ccc2c(c1)OCO2,inactive: 0.859
4,O=C(/C=C/c1cccc(-c2cn(CC[C@@H]3OC(=O)[C@H](Cc4ccccc4)N4CC5=CC(=O)[C@H](C6CC6)[C@H]5[C@H]34)nn2)c1)NO,inactive: 1
5,C[C@H]1CCCCO[C@H](CN(C)C(=O)c2ccccc2)[C@@H](C)CN([C@@H](C)CO)C(=O)c2cc(NS(=O)(=O)c3ccc(Cl)cc3)ccc2O1,inactive: 0.999
6,CC1=C(C)C(=O)C(CCCCCCCCCC[P+](c2ccccc2)(c2ccccc2)c2ccccc2)=CC1=O,inactive: 0.308
7,COC(=O)C1=C(C)NC(C)=C(C(=O)OCC(C)C)[C@@H]1c1ccccc1[N+](=O)[O-],inactive: 0.983
8,NC1CCN(C(=O)N2CCCC2)CC1,inactive: 0.966
9,Cc1noc(C)c1S(=O)(=O)Nc1cccc2c1O[C@H](CN(C)Cc1ccc(C(=O)O)cc1)[C@@H](C)CN([C@@H](C)CO)C2=O,inactive: 1.01
10,C[C@H](CO)N1C[C@H](C)[C@@H](CN(C)C(=O)Nc2cccc3ccccc23)OCCCC[C@H](C)Oc2ccc(NC(=O)NC3CCCCC3)cc2C1=O,inactive: 0.987
11,Cc1noc(C)c1S(=O)(=O)Nc1ccc2c(c1)C(=O)N([C@H](C)CO)C[C@@H](C)[C@H](CN(C)C)OCCCC[C@@H](C)O2,inactive: 1.01
12,C[C@H]1CN([C@@H](C)CO)C(=O)CCCn2cc(nn2)CO[C@@H]1CN(C)Cc1ccc2c(c1)OCCN2C,inactive: 0.991
13,COc1cccc(NC(=O)C[C@@H]2CC[C@H]3[C@H](COc4ccc(NC(=O)C5CCOCC5)cc4C(=O)N3C)O2)c1,inactive: 1.04
14,C[C@@H]1CN([C@@H](C)CO)C(=O)c2cc(NC(=O)c3ccncc3)ccc2O[C@H]1CN(C)S(=O)(=O)c1cccs1,inactive: 0.991
15,O=C(CN1CCOCC1)NCC[C@@H]1CC[C@H](NS(=O)(=O)c2ccc(Cl)cc2)[C@H](CO)O1,inactive: 1.02
16,C[C@@H]1CCCCO[C@H](CN(C)C(=O)Nc2ccc3c(c2)OCO3)[C@@H](C)CN([C@@H](C)CO)C(=O)c2cc(NS(=O)(=O)c3cccs3)ccc2O1,inactive: 1
17,CCC(=O)N(C)C[C@H]1Oc2ncc(C#C[C@H](C)O)cc2C(=O)N([C@H](C)CO)C[C@H]1C,inactive: 0.983
18,C[C@H]1CCCCO[C@H](CN(C)Cc2ccc(C(=O)O)cc2)[C@@H](C)CN([C@@H](C)CO)C(=O)c2cc(NC(=O)Nc3ccc(C(F)(F)F)cc3)ccc2O1,inactive: 0.931
